{"source": "PubChem BioAssay AID1458", "about": "(National Center for Advancing Translational Sciences (NCATS), 2008)", "note": "About 5,900 (2.8%) of roughly 210,000 compounds were called active. The shares of active, inactive and inconclusive entries below differ from those in the screen. The call rests on the fitted dose curve; in most records, active means well fitted activation curve with a large enough effect; inconclusive means small, poorly fitted or top-dose-only effect; inactive means no such curve, though single readings can be large or run the other way. A potency beside an inconclusive call is a rough fit, not a confirmed value. Potency means the concentration at half of the fitted maximal effect; tags describe the fitted curve by direction and shape.", "data": [{"assay": "qHTS Assay for Enhancers of SMN2 Splice Variant Expression; further: nearly all actives have a fitted effect of over 55% in size", "settings": "HEK293 SMN2-luciferase splicing reporter, luminescence, 30-36 h; series mostly up to 46.1 µM", "summary_of_the_method": "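qHTS luciferase splicing reporter: luminescence rises when SMN2 exon 7 is included in transfected HEK293 cells. Compound exposure lasted 30-36 h at 37C, with 4.5 mM final sodium butyrate as control, followed by a ONE-Glo read.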", "values": [{"smiles": "CCN(CC)S(=O)(=O)c1cccc(NC(=O)C(=O)c2c(-c3ccccc3)cc3ccccn23)c1", "Potency": "inactive"}, {"smiles": "O=C(Nc1ccc(-c2nc3ccccc3s2)c(O)c1)C1=COCCO1", "Potency": "active: 2.24 µM"}, {"smiles": "Cc1ccc(NC(=O)c2cc3c(s2)CCCC3)cc1", "Potency": "active: 12.6 µM"}, {"smiles": "O=C(Nc1cc(C(F)(F)F)ccc1Cl)c1cc(-c2cccs2)nc2ccccc12", "Potency": "inactive"}, {"smiles": "COc1cccc(C(=O)Nc2c(C)n[nH]c2C)c1", "Potency": "inconclusive: 0.158 µM [activator, full curve, poor fit]"}, {"smiles": "Fc1ccccc1COc1ccc(/C=N/n2cnnc2)cc1", "Potency": "inactive"}, {"smiles": "Cc1ccc(S(=O)(=O)N2CCOCC2)cc1C(=O)OCC(=O)N1c2ccccc2NC(=O)C1(C)C", "Potency": "inactive"}, {"smiles": "Cc1ccsc1CN(Cc1ccco1)C(=O)c1ccc(Cl)cc1", "Potency": "inactive"}, {"smiles": "CCOc1ccc(C(=O)/C=C/c2ccccc2C(F)(F)F)cc1", "Potency": "inactive"}, {"smiles": "Cc1ccc2nc(NC(=O)COC(=O)c3ccccn3)sc2c1", "Potency": "inconclusive: 35.5 µM [activator, single point]"}, {"smiles": "O=C(c1ccccc1-c1nc(-c2ccccc2)no1)N1CCCC1", "Potency": "inconclusive: 17.8 µM [activator, single point]"}, {"smiles": "O=C(c1ccncc1)N1CCC2(CCCN(C(c3ccccc3)c3ccccc3)C2)CC1", "Potency": "inconclusive: 15.8 µM [activator, single point]"}, {"smiles": "CN(C)C=Nc1ccc2nn(-c3ccccc3)nc2c1", "Potency": "active: 5.01 µM"}, {"smiles": "COc1ccccc1CNc1ccnc(-c2ccc3c(c2)OCO3)n1", "Potency": "inactive"}, {"smiles": "Cc1sc(N/N=C/c2cccnc2)nc1-c1ccccc1", "Potency": "inconclusive: 12.6 µM [activator, partial curve, poor fit]"}, {"smiles": "COc1ccc(-c2ccc(-c3nnn(CC(=O)N4CCOCC4)n3)cc2)cc1", "Potency": "inconclusive: 7.08 µM [activator, full curve]"}, {"smiles": "COc1ccc(NS(=O)(=O)c2cc(NC(=O)c3nn(C)c(=O)c4ccccc34)ccc2OC)cc1", "Potency": "inconclusive: 20 µM [activator, single point]"}, {"smiles": "Cc1ccc(C)c2[nH]c(=O)c(CN(Cc3ccco3)C(=O)Nc3ccccc3)cc12", "Potency": "inactive"}, {"smiles": "O=C(Nc1ccc(-c2nc3ccccc3s2)c(O)c1)c1ccc(Br)cc1", "Potency": "inactive"}, {"smiles": "C/C(Cl)=C/Cn1c(SCc2ccc(Cl)cc2)nc2c1c(=O)[nH]c(=O)n2C", "Potency": "inconclusive: 0.0035 µM [activator, full curve]"}, {"smiles": "CSc1ccc(CCNC(=O)CN2C(=O)COc3ccc(S(=O)(=O)N4CCCC4)cc32)cc1", "Potency": "inactive"}, {"smiles": "COC(=O)c1c(C)[nH]c(C(=O)CC#N)c1C", "Potency": "inconclusive: 28.2 µM [activator, single point]"}, {"smiles": "O=C(NNS(=O)(=O)c1ccc(F)cc1)c1ccc(S(=O)(=O)N2CCCCC2)cc1", "Potency": "inconclusive: 1.78 µM [activator, partial curve]"}, {"smiles": "Cc1ccc(NC(=O)c2ccc(Cl)c(N3C(=O)C=CC3=O)c2)cc1", "Potency": "inactive"}, {"smiles": "COc1ccc(Oc2ncc3nc(-c4ccccc4)c(=O)n(C4CC4)c3n2)cc1", "Potency": "inactive"}, {"smiles": "COc1ccc(CCNC(=O)Cc2c(C)c3ccc(O)c(C)c3oc2=O)cc1OC", "Potency": "inactive"}, {"smiles": "O=C(NCCC1=CCCCC1)c1coc(=O)c(Br)c1", "Potency": "inactive"}, {"smiles": "Cn1ccnc1SCc1cn2ccccc2n1", "Potency": "inconclusive: 15.8 µM [activator, single point]"}, {"smiles": "CCCOc1ccc2cc(-c3ccccn3)c(=O)oc2c1", "Potency": "active: 0.794 µM"}, {"smiles": "COC(=O)c1cc(NC(=O)CSc2nc(C)cc(=O)[nH]2)cc(C(=O)OC)c1", "Potency": "inconclusive: 5.01 µM [activator, single point]"}, {"smiles": "CCOC(=O)c1c(NC(=O)OC)sc2c1CCC2", "Potency": "inconclusive: 0.01 µM [activator, full curve, poor fit]"}, {"smiles": "Nc1nc(-c2ccc3ccccc3c2)c(C2(O)C(=O)Nc3c(Br)cc(F)cc32)s1", "note": "(stereo unspecified)", "Potency": "inactive"}, {"smiles": "O=S(=O)(c1ccccc1)n1nc(-c2ccc(Cl)cc2)nc1NCc1ccc(F)cc1", "Potency": "inactive"}, {"smiles": "CC(=O)NCCNc1ncnc2ccc(-c3ccc(C(=O)N(C)C)cc3)cc12", "Potency": "inactive"}, {"smiles": "Cc1ccc(-n2c(C)cc(/C=C(\\C#N)C(=O)NCC3CCCO3)c2C)cc1", "note": "(stereo unspecified)", "Potency": "inconclusive: 5.62 µM [activator, partial curve]"}, {"smiles": "CC(C)c1ccc(NC(=O)c2cccnc2)cc1", "Potency": "inconclusive: 22.4 µM [activator, single point]"}, {"smiles": "O=C(Nc1ccc(F)cc1)c1ncn(-c2ccccc2)n1", "Potency": "active: 14.1 µM"}, {"smiles": "c1ccc2[nH]c3cc4ncnc4cc3nc2c1", "Potency": "inconclusive: 31.6 µM [activator, single point]"}, {"smiles": "Fc1cccc(F)c1CSc1nc2ccccc2[nH]1", "Potency": "active: 10 µM"}, {"smiles": "COCCNS(=O)(=O)c1ccc(OCC(=O)OC)c(Cl)c1", "Potency": "inconclusive: 0.794 µM [activator, full curve]"}, {"smiles": "Cc1ccc2nc(NC(=O)CSc3nnc(C)c(=O)n3N)sc2c1", "Potency": "inconclusive: 35.5 µM [activator, single point]"}, {"smiles": "CCCN(CCC)C(=O)CSc1nc2ccccc2c(=O)n1C1CCCC1", "Potency": "inactive"}, {"smiles": "CCCCN=C1NN=C(c2ccc(C)c(C)c2)CS1", "Potency": "active: 14.1 µM"}, {"smiles": "CCOCCCNC(=O)CCC(=O)NNc1nc2ccccc2c2nc(C)nn12", "Potency": "inconclusive: 4.47 µM [activator, partial curve, poor fit]"}, {"smiles": "CCSC1=NCCN1C(=O)c1ccc(S(=O)(=O)N(C)C)cc1", "Potency": "inactive"}, {"smiles": "CCOC(=O)/C=C(\\C)N1N=C(c2ccccc2)CC1c1ccccc1", "note": "(stereo unspecified)", "Potency": "inconclusive: 28.2 µM [activator, single point]"}, {"smiles": "CCOC(=O)c1ccc(N/C=C/C(=O)c2ccco2)cc1", "Potency": "active: 14.1 µM"}, {"smiles": "Cc1ccc(C(=O)Nc2cccc(C(=O)NCc3ccccc3)c2)cc1", "Potency": "inactive"}, {"smiles": "CCNC(=O)CC1SC(=Nc2ccc(Cl)cc2)N(CC)C1=O", "note": "(stereo unspecified)", "Potency": "inconclusive: 6.31 µM [activator, single point]"}, {"smiles": "Cc1cc2c3c(c1C)C1(C(=O)N3C(C)(C)CC2C)C(C#N)=C(N)Oc2n[nH]c(C)c21", "note": "(stereo unspecified)", "Potency": "inconclusive: 0.126 µM [activator, single point]"}, {"smiles": "O=c1sc2ccccc2n1CCCOc1ccccc1", "Potency": "inconclusive: 35.5 µM [activator, single point]"}]}]}
